From article PMC4336329 (PLoS ONE, 2015)
The whole screen tested about 310,000 compounds, of which about 14,000 (4.5%) showed an effect of 50% or more. The effect is printed as a negative number. The list shows a part of the results. Where a SMILES comes first, the peptide text is derived from it. The star is where a group is joined. Boc = CC(C)(C)OC(=O)*

The compounds below were run against human ether-à-go-go-related gene (hERG) potassium channel (human, UniProt Q12809) (assay: primary screen, population patch clamp on CHO cells stably expressing hERG).
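Further: peak tail current of the secondary pulse compared with the same well before compound.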

Chain of human ether-à-go-go-related gene (hERG) potassium channel (Q12809 whole entry, looked up): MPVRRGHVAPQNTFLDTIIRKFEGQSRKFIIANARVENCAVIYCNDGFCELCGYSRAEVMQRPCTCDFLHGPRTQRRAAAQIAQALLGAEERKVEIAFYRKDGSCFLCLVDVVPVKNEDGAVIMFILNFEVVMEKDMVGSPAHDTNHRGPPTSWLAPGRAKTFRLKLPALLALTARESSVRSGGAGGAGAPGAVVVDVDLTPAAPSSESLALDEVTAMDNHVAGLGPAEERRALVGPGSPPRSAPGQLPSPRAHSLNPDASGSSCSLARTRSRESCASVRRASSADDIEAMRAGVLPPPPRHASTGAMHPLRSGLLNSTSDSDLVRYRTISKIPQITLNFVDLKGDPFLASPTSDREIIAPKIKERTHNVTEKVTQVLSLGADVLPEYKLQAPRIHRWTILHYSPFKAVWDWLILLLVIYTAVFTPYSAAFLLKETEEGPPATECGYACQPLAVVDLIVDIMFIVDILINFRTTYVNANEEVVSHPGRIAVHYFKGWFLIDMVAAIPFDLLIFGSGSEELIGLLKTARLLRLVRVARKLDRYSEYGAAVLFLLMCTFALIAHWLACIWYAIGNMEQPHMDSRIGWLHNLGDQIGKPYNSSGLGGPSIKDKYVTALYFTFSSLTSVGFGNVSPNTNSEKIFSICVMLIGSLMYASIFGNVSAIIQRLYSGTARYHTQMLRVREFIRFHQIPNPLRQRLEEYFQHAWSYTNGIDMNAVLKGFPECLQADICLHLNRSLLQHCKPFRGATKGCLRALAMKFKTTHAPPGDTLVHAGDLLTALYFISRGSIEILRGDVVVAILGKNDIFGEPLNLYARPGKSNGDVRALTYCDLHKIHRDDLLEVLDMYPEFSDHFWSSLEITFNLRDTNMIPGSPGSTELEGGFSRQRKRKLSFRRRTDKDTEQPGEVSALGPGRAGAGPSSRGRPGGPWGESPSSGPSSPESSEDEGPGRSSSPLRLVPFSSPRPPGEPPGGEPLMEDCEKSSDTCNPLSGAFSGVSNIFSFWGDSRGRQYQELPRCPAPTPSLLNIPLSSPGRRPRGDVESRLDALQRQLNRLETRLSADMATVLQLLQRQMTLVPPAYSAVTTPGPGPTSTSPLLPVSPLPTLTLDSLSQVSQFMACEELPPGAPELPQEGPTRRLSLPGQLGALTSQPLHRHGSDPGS

Row | Compound | hERG current change (%, negative = inhibition) at 10uM [%]
1 | O=C(CCc1ccccc1)NNC(=O)c1ccco1 | 5.99
2 | COc1ccc(CNC(=O)c2ccccc2C(=O)O)cc1 | -0.722
3 | CCN(C(=O)CN1C(=O)c2ccccc2S1(=O)=O)C1CCCCC1 | -14.8
4 | COc1ccc(OCC(=O)NNC(=S)NC(=O)c2ccc([N+](=O)[O-])cc2)cc1 | 15.6
5 | O=C(CSc1nc2c(cnn2-c2ccccc2)c(=O)[nH]1)NC1CCS(=O)(=O)C1 (stereo not drawn) | 14
6 | NC(=O)c1cc(C(=O)Cc2ccc(Cl)cc2)c[nH]1 | 12.5
7 | CCOC(=O)CC(NC(=O)c1cccs1)c1ccc(C)cc1 (stereo not drawn) | 13.2
8 | O=S(=O)(c1ccccc1)c1cnc(-c2ccccc2)nc1N1CCCCC1 | 27.1
9 | O=C(NCCNC(=O)c1ccccn1)c1ccc(F)cc1 | 6.57
10 | NC(=O)C1CCN(CC(=O)Nc2cc(S(=O)(=O)N3CCOCC3)ccc2N2CCCC2)CC1 | -3.61
11 | Cc1ccc(-c2nn3cnnc3c3ccccc23)cc1 | -35.7
12 | COc1cccc(C2C(=O)c3ccccc3C2=O)c1 | 16.9
13 | CC(C)(C)c1cc(C(=S)N2CCCC2)cc(C(C)(C)C)c1O | -1.05
14 | COc1ccc(C(=O)NNC(=O)CSc2nnnn2C)cc1 | 21.3
15 | O=C(COC(=O)c1ccc(O)cc1)Nc1ccccc1-c1ccccc1 | 1.92
16 | O=C(Cn1cc(C(=O)c2cccs2)c2ccccc21)NC1CCCCC1 | -7.98
17 | Cn1cnnc1SCC(=O)NC1CCCCCC1 | 18.5
18 | O=C(NCc1ccc(F)cc1)C1CCCN1C(=O)Nc1ccc(Cl)cc1 (stereo not drawn) | -4
19 | CC(C)c1nc(SCC(=O)Nc2cccc(C(F)(F)F)c2)c2c(=O)n(C)c(=O)n(C)c2n1 | -5.43
20 | CCCCCCn1c(N2CCC(C(N)=O)CC2)nc2c1c(=O)n(C)c(=O)n2C | -56.4
21 | Cc1ccc2nc(/C(C#N)=C/c3ccccc3C(=O)O)[nH]c2c1 | 8.51
22 | Cc1cnc(C)c(N2CCN(Cc3nc(-c4cccc(F)c4F)oc3C)CC2)n1 | -41.4

Row | Compound | hERG current change (%, negative = inhibition) at 10uM [%]
23 | COc1ccccc1C(=O)O/N=C(\c1ccccc1)c1ccncc1 | -14.4
24 | CCc1ccccc1NC(=S)NCCSc1ccc(Cl)cc1 | 5.35
25 | CC(=O)Nc1cccc(-c2csc(Nc3ccc(Cl)cn3)n2)c1 | 28.7
26 | COC(=O)C(Cc1ccccc1)NC(=O)C(CC(C)C)NC(=O)OC(C)(C)C (stereo not drawn) (Boc-Leu-Phe-OMe; configuration not given here) | 10.7
27 | COc1ccc(C2=NN(C(=O)CCCC(=O)O)C(c3cccs3)C2)cc1OC (stereo not drawn) | 17.1
28 | COc1c2ccoc2nc2c(OC)c(OCC(O)C(C)(C)O)ccc12 (stereo not drawn) | 22.5
29 | O=C(Nc1ccccc1N1CCCCC1)c1cccs1 | -42.4
30 | CC(=O)N1c2ccc(S(=O)(=O)NCC3CCC(C(=O)N(C)Cc4ccccc4)CC3)cc2CC1C (stereo not drawn) | 12.9
31 | COc1ccc(-c2nc(SCC(=O)Nc3c(F)cccc3F)n[nH]2)cc1 | -36.1
32 | Cc1nn(CCC(=O)NNC(=S)Nc2ccc(Cl)cc2)c(C)c1[N+](=O)[O-] | 9.72
33 | Cc1cccc(CCNC(=O)CCS(=O)(=O)c2ccc3nc(C)sc3c2)c1 | 7.85
34 | CCn1c(=N)n(CC(O)c2ccco2)c2ccccc21.Cl (stereo not drawn) | -30.7
35 | CC(C)c1c(C(=O)N/N=C/c2ccc(C(F)(F)F)cc2)nnn1-c1nonc1N | 11.7
36 | CCOC(=O)C1=C(CS(=O)(=O)c2ccc(Cl)cc2)NC(=O)NC1c1ccc(O)c(OC)c1 (stereo not drawn) | 0.805
37 | CC1CCCN(CCCNC(=O)C2CCN(S(=O)(=O)N3CCC4(CC3)OCCO4)CC2)C1 (stereo not drawn) | 14.6
38 | Cc1ccc(C(=O)Cc2nnc(C)s2)cc1 | -18.2
39 | COc1ccc(CNC(=O)CSc2nnc(C)n2-c2ccc(F)cc2)cc1 | -22.3
40 | Cc1ccc(NC(=O)CCC(=O)NNC(=O)COc2ccc([N+](=O)[O-])cc2)cc1C | 27.1
41 | CCN1C(=O)C2(C(C#N)=C(N)Oc3n[nH]c(-c4ccc(Cl)cc4)c32)c2ccccc21 (stereo not drawn) | 17.8
42 | CCOC(=O)c1nc(N)c(C(=O)OCC)[nH]1 | 14.4
43 | COC(=O)CN1C(=O)COc2ccc(S(=O)(=O)NCc3ccc(F)cc3)cc21 | -23.3
44 | O=C(Nc1cccc(-c2ccc3nncn3n2)c1)C(F)(F)F | 2.1

Row | Compound | hERG current change (%, negative = inhibition) at 10uM [%]
45 | O=C(NC(Cc1ccccc1)C(=O)O)/C(=C/c1ccccc1)NC(=O)c1ccc(Br)o1 (stereo not drawn) | 20.1
46 | CCC(=O)Nc1ccc2nn(-c3ccc(F)cc3)nc2c1 | 11.2
47 | COc1ccc(-c2nnc(SCC(=O)Nc3ccccc3)n2C)cc1 | 0.214
48 | COc1cccc(CNS(=O)(=O)c2cn(C)cn2)c1 | 9.73
49 | COc1cc(C(=O)NNC(=O)COc2cccc(F)c2)ccc1OCC(=O)N1CCOCC1 | -2.81
50 | COC(=O)C(Cc1c[nH]c2ccccc12)NC(=O)c1cc(-c2ccc(OC)c(OC)c2)oc1C (stereo not drawn) | -3.18
51 | CCCCN=C1CC(C)(C)CC(=O)/C1=C(/O)CCC | -7.23
52 | O=C(CN1C(=O)C2CC=CCC2C1=O)OCc1cc(=O)n2cc(Br)ccc2n1 (stereo not drawn) | -19.1
53 | CCOC(=O)c1c(C)c(C(=O)Nc2ccc3c(c2)OCCO3)c(C)n1CC | 7.48
54 | Cc1ccc(S(=O)(=O)N2CCC(C(=O)OCC(=O)N(Cc3ccccc3)C(C)(C)C)CC2)cc1C | -1.29
55 | CCn1cc(C(=O)NN)c(=O)c2cc(F)c(N3CCN(C)CC3)cc21 | 15.8
56 | CCn1c(SCC(=O)Nc2ccc(OC)cc2)nc2c1c(=O)n(C)c(=O)n2C | -14.2
57 | CCOc1ccc(CC(=O)Nc2nccs2)cc1OCC | -3.6
58 | O=C(NCc1ccccc1)C(c1ccc(F)cc1)N(C(=O)c1csnn1)C1CC1 (stereo not drawn) | 6.8
59 | O=C1CCc2ccccc2N1 | 16.5
60 | O=C1CCN(CCc2ccccc2)CCN1[C@H](COc1ccccc1)c1ccccc1 | -75.9
61 | COCCn1c(SCC(=O)NC(=O)NC2CCCC2)nc2ccccc2c1=O | -20.9
62 | CCOc1cc(NC(=O)c2ccccc2[N+](=O)[O-])c(OCC)cc1NC(=O)CC(C)C | 13.6
63 | CCCCc1nnc(SC(C)C(=O)Nc2nccs2)n1C (stereo not drawn) | 11
64 | Cc1ccc(C)c(NC(=O)CN(C)C(=O)c2ccccc2Cc2ccccc2)c1 | -25.1
65 | O=C(NCc1n[nH]c(=S)n1Cc1ccccc1)c1ccccc1 | 5.09
66 | COCCN(Cc1ccc(F)cc1)C(=O)c1cc2ccccc2oc1=O | -0.373

Row | Compound | hERG current change (%, negative = inhibition) at 10uM [%]
67 | Cc1cc(NCCN2CCOCC2)c2ccc3ccccc3c2n1 | -69.5
68 | Cc1[nH]c(=O)[nH]c(=O)c1S(=O)(=O)N1CCCC(C(=O)NCc2ccccc2Cl)C1 (stereo not drawn) | -2.87
69 | O=C(NCCc1nnc2ccc(NCCCN3CCOCC3)nn12)c1ccccc1F | 1.39
70 | COc1ccc2[nH]c3nc(SCC(=O)Nc4ccc5c(c4)OCO5)nnc3c2c1 | 16.5
71 | CCCCN(CCCC)C(=O)c1nsnc1-c1ccccc1O | -14.8
72 | CCO/N=C(/C)c1c(O)cc(C(C)(C)C)n(-c2ccccc2)c1=O | -11.4
73 | O=C(COC(=O)CSc1ccc([N+](=O)[O-])cc1)NCCc1ccccc1 | 5.52
74 | CC1(C)CC(=O)C2=C(C1)N(c1ccccc1C#N)C(N)=C(C#N)C2c1cccs1 (stereo not drawn) | -13
75 | CSc1nsc(SCc2cnc(C)nc2N)n1 | 0.0826
76 | COc1ccc(OC)c(S(N)(=O)=O)c1 | 27.5
77 | N#Cc1ccc(CN2CCN(C(=O)c3cn(Cc4ccccc4)nc3-c3cccnc3)CC2)cc1 | -72.9
78 | COc1ccc(NC(=O)Nc2ccc3c(c2)OCO3)c(C)c1 | 17.3
79 | O=C(CCCn1c(SCC(=O)NCC2CCCO2)nc2ccccc2c1=O)NCc1ccccc1 (stereo not drawn) | -29.6
80 | O=C(NC1CCOC1)c1cc(COc2cccc(C(F)(F)F)c2)on1 (stereo not drawn) | 2.06
81 | COc1ccc(CNC(=O)c2cc(C3CC3)nc3c2cnn3C(C)C)cc1 | 3.16
82 | CCc1nc(C#N)c(N2CCOCC2)o1 | 2.54
83 | Cc1cc(C)c2c(=O)n(CC(=O)N3CCC(N4CCCCC4)CC3)sc2n1 | -14.6
84 | O=C(N/N=C/c1ccc([N+](=O)[O-])cc1)c1cccc(N2CCCC2=O)c1 | -20.7
85 | O=c1oc(-c2ccccc2NS(=O)(=O)c2ccc(Cl)cc2)nc2ccccc12 | 4.86
86 | CCc1c(C)sc(NC(=O)/C=C/c2ccc3c(c2)OCO3)c1C(=O)OC | 8.24
87 | Cc1c(NC(=O)c2cnn3c(C(F)(F)F)cc(-c4ccco4)nc23)c(=O)n(-c2ccccc2)n1C | 4.55
